Results reported in paper PMC12136788.
The list shows a part of the results.

B1: chr22:42060953:42061055:-|CDS|ENSG00000198951|unk|FALSE|unique (ssRNA)
RNA: GGGAGUUCUACAGUCCGACGAUCCCAGGAAAAAUCUCUCAUCGAAGUGUACAUGCGGCCUCUGUCCAACAAGGCUAGCGCCUUAGUCUUCUUCAGCUGCAGGACCGAUAUGCCUUAUCGCUACCACUCCUCCCUUGGCCAGCUCAACAGAGGAUUGAGCAUCA
B2: ENSG00000198589:be:win_5951|CDS|ENSG00000198589|bound_else_gene|NA|bound_elsewhere_windowed (ssRNA)
RNA: GGGAGUUCUACAGUCCGACGAUCACUGGGAAGAUGACUUGCGGCGCCGGCGACGAUUUGUGCGUAACCCUCUAGGAUCGACACAUCCUGAAGCGACACUAAAAACAGCCGUGGAACAUGCCACAGAUGAAGAUAUCCUUGCUACAACAGAGGAUUGAGCAUCA
B3: chr17:44678858:44679043:-|CDS|ENSG00000180329|control|control|control (ssRNA)
RNA: GGGAGUUCUACAGUCCGACGAUCUCGGGAUGAAUCCCAAAGGAAGAAGGAACAGGACAAGCUGCAGAGGGAGAGAGACAAACUAGCCAAGCAGGAGCGCAAGGAAAAGGAAAAAAAAAGGACACAGAGAGGGGAGCGAAAGCGCAACAGAGGAUUGAGCAUCA
B4: chr6:98868534:98874277:-|three_prime_utr|ENSG00000112234|control|control|control (ssRNA)
RNA: GGGAGUUCUACAGUCCGACGAUCAUUAAAAUUAAUGUGCUUUGUUGGGGUUUAAUUUUGGGAUUGGUUUUGGGUUUUGUUUUUAGUUGUUUUAAUGGUAAGAAUUAAGACAUUUGUAGAUUUUAAAGAAAAAUAUGAAAUUGUCAACAGAGGAUUGAGCAUCA
B5: chrX:72139229:72139330:+|CDS|ENSG00000204131|unk|FALSE|unique (ssRNA)
RNA: GGGAGUUCUACAGUCCGACGAUCUCCCUUAGUGCCCAGCAAGAGGCCCAGCACAGAAGGCAGAGGUCCAAGAGUAUCUCACUUAGGAAGGCCAAAAAGAAGCCUUCCCCACCCACACGCAGUGUCUCACUGGUCAAAGAUGAGCAACAGAGGAUUGAGCAUCA
B6: chr22:31279490:31279591:+|3pUTR|ENSG00000182541|msi1|total|mutant (ssRNA)
RNA: GGGAGUUCUACAGUCCGACGAUCAGCAGCUUGGGCUGGGAAGAGGUGGUGGCAGAGUCUCAAAGCUGAGAUGCUGAGAGAGACCGCUCCCUGAGCUGGGCCAUCUGACUUCUACCUCCCAUGUUUGCUCUCCCAACUCAUCCGCAACAGAGGAUUGAGCAUCA
B7: ENSG00000112339:stop:overlap|stop_codon|ENSG00000112339|stop_codon|NA|stop_codon (ssRNA)
RNA: GGGAGUUCUACAGUCCGACGAUCUGAAGGACAAGAAUGAGGCAACAGUAUCUACAGGAAAGAUAGCAAAAGGCCCUUGCUGCUAGACCUUCAGCUUUUGCCUCAACACUGUGUCUUCGUUACCCACUGAAAAGCUGCAAGCGACAACAGAGGAUUGAGCAUCA
B8: chr12:121847077:121847190:-|CDS|ENSG00000158104|unk|total|mutant (ssRNA)
RNA: GGGAGUUCUACAGUCCGACGAUCAAAAACCUGCAGUUCCACCGCUUCUGGUCCGUGGAUGACACGCAGGUGCACACGGAAUACCGCUCUCUGCGAUCCAUUGUGGUGGCCAACUAUGAAGAGUCCAUCAAGAUGCCCAUCAAUCAACAGAGGAUUGAGCAUCA
B9: ENSG00000198589:be:win_6801|CDS|ENSG00000198589|bound_else_gene|NA|bound_elsewhere_windowed (ssRNA)
RNA: GGGAGUUCUACAGUCCGACGAUCAAAAAGAGCAGCAUUCUUCGCUGAGCGUUAUGAAUCAUGGGAAGAUGAUCAAGUUCCAAAGUUUCACUAUGGUACUCAUUACUCAACUGCAAGUUUUGUUCUUGCAUGGCUGCUAAGAAUCAACAGAGGAUUGAGCAUCA
B10: chr6:52279506:52279615:-|CDS|ENSG00000112118|unk|total|mutant (ssRNA)
RNA: GGGAGUUCUACAGUCCGACGAUCUGAGUGUGGCAUUUUUAAGACAGGACGGAGAUCACUCUGUCCCUCUGUGUGCCUUUUUCCCGGAUGAGGAGAACAAUCCCCUUGAGACAGAAUAUGGCCUUUCUGUCUACAAGGAUCACCCAACAGAGGAUUGAGCAUCA
B11: ENSG00000198589:be:win_6601|CDS|ENSG00000198589|bound_else_gene|NA|bound_elsewhere_windowed (ssRNA)
RNA: GGGAGUUCUACAGUCCGACGAUCACCCAGCGAUGGCAACACAGAGAGAUAUCUAAUUUUGAGUACUUGAUGUUUCUCAACACGAUAGCAGGACGGAGUUAUAAUGACUUAAAUCAGUAUCCAGUGUUUCCUUGGGUCAUCACUCAACAGAGGAUUGAGCAUCA
B12: chr6:96891104:96891324:-|CDS|ENSG00000123545|unk|FALSE|unique (ssRNA)
RNA: GGGAGUUCUACAGUCCGACGAUCUAAUCAUAAGCUUUUCCCAGAAACCUGGACUGCUGAGAAAAUAAUGCAGGAAUACCAGUUAGAACAGAAAGAUGUGAAUUCUCUUCUUAAAUAUUUUGUUACUUUUGAAGUCGAAAUCUUCAACAGAGGAUUGAGCAUCA
B13: chr15:52550141:52550321:-|3pUTR|ENSG00000128989|msi1|FALSE|unique (ssRNA)
RNA: GGGAGUUCUACAGUCCGACGAUCAGAUGUCACUUUAGUAAAAUACCAAUUUAGUUUUACUUGUGGCUUAUCUAGUUAGAACUUAGCAGACUUUACUGGGACAAGUUUACUGCUCUUGUAGGAGCUCCUCUCACAAGUAGUUGUCAACAGAGGAUUGAGCAUCA
B14: chr10:62807900:62808002:+|3pUTR|ENSG00000181915|unk|total|mutant (ssRNA)
RNA: GGGAGUUCUACAGUCCGACGAUCCAAAAAGUUGAUCCGCUUACCAAGAUUAUUAACCGCAAUGUAUGUGUUAUAAUACAACUCCGUACAUUAAAGCUACGAAAACUCAUCCUGGCUGCCGGACCGUAAUAAAGGAAGAAUUAUCAACAGAGGAUUGAGCAUCA

molecular target: T1, UNK ZnF1-6 (called full-length) (human, UniProt Q9C0B0 30-357); assay: nsRBNS (natural sequence RNA bind-n-seq); RBNS binding buffer (assumed for nsRBNS): 25 mM Tris pH 7.5, 150 mM KCl, 3 mM MgCl2, 0.01% Triton X-100, 500 ug/ml BSA, 20 U/ml SUPERase-In, 4 C; UNK is unkempt and MSI1 is Musashi-1; names of the RNAs are library labels; protein concentration not given here; high values mean tight binding
T1 sequence: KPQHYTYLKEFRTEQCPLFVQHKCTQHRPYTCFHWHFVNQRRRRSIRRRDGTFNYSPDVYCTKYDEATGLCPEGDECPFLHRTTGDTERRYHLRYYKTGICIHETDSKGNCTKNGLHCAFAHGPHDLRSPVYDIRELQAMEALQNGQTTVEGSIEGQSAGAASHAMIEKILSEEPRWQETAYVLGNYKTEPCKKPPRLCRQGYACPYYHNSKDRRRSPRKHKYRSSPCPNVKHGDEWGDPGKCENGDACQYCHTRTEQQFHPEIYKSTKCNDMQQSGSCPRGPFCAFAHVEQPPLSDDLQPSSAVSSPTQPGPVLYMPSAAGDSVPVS

Binder | binding signal [enrichment R]
B1 | 0.806
B2 | 0.473
B3 | 0.927
B4 | 12.9
B5 | 1.31
B6 | 0.701
B7 | 0.344
B8 | 0.452
B9 | 0.193
B10 | 0.393
B11 | 0.398
B12 | 0.645
B13 | 2.25
B14 | 0.286
